Results: the supplement of paper PMC4723716
± gives the uncertainty stated by the source. In all, about 9,900 compounds were measured (“viability index relative to DMSO control”: median about 1, lowest 2% from about 0.85 on). Some of the results follow.

Test system: Plasmodium falciparum NF54 stage V gametocytes
Test: viability index relative to DMSO control (fraction); higher = less gametocyte killing
Details: 2.5 µM, incubation time: 72 h
Procedure, shortened: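 Viability index is the count of red-stained particles in a well divided by the plate mean of solvent-only wells. Particles of 20–70 µm2 were counted in one imaged field per well after one to two hours with 3 µl of 2.5 µM MitoTracker Red CMXRos and 0.13% saponin. Before staining, P. falciparum NF54 stage V gametocytes in serum-free medium (0.75% gametocytemia, 1.25% hematocrit, 10 µl, 1,536-well plates) were kept with compound at 2.5 µM for 72 hr at 37°C under low oxygen.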

[1] = library set: Broad Institute DOS

Row | Structure (SMILES) | viability index [1] | viability index (library set: Broad Institute Blood Stage)
1 | Cc1noc(C)c1NC(=O)Nc1ccc2c(c1)C(=O)N([C@@H](C)CO)C[C@H](C)[C@H](CN(C)Cc1ccc3c(c1)OCO3)OCCCC[C@@H](C)O2 | 1.065 ± 0.0015 | 
2 | OC[C@@H]1[C@H](c2ccccc2)C2(CN(Cc3cccnc3)C2)N1Cc1ccncc1 | 1.1 ± 0.047 | 
3 | COc1ccc(C#Cc2ccc([C@H]3[C@@H](CO)N4C(=O)CN(C(=O)NC(C)C)C[C@H]34)cc2)cc1 | 1.06 ± 0.022 | 
4 | c1ccc(-c2ccc([C@H]3[C@H]4CNC[C@@H]3N4Cc3cc(-c4ccccc4)on3)cc2)cc1 | 0.9787 ± 0.0045 | 
5 | CN(C)CC(=O)N1[C@H](C(=O)Nc2nccs2)[C@@H](CO)[C@@H]2Cn3c(ccc(C4=CCCCC4)c3=O)[C@@H]21 | 1.02 ± 0.015 | 
6 | CC(C)CC#Cc1ccc([C@H]2[C@@H](CO)N3CCCCN(C(=O)Nc4ccccc4)C[C@H]23)cc1 | 0.782 ± 0.084 | 
7 | CCCC#Cc1cnc2c(c1)C(=O)N([C@H](C)CO)C[C@@H](C)[C@H](CN(C)C(=O)Nc1cc(F)ccc1F)O2 | 0.822 ± 0.058 | 
8 | CO[C@@H](CN(C)Cc1ccc(-c2ccccn2)cc1)[C@H](C)CN(C(=O)Nc1ccc(F)cc1)[C@H](C)CO | 1.14 ± 0.077 | 
9 | O=C(C1CCCCC1)N1[C@@H]2CN(S(=O)(=O)c3ccccc3)c3ccccc3[C@@H]2[C@@H]1CO | 1 ± 0.065 | 
10 | CC(C)N(C[C@H]1[C@@H](c2ccccc2)[C@@H](CO)N1CC1CC1)C(=O)C1CCC1 | 1.07 ± 0.014 | 
11 | COCC(=O)N1[C@@H](C#N)[C@@H](c2ccc(C#CCC3CCCC3)cc2)[C@@H]1CO | 1.107 ± 0.0088 | 
12 | O=S(=O)(c1ccc(F)cc1)N1CCCCN2[C@H](C1)[C@H](c1ccc(-c3cncnc3)cc1)[C@@H]2CO | 1.057 ± 0.0041 | 
13 | C[C@H]1CN([C@@H](C)CO)C(=O)c2c(c3ccccc3n2C)-c2ccccc2CO[C@@H]1CN(C)Cc1cccc(C(F)(F)F)c1 | 0.975 ± 0.022 | 
14 | CNC[C@H]1OCCCC[C@@H](C)Oc2ccc(NS(=O)(=O)c3ccc(F)cc3)cc2C(=O)N([C@H](C)CO)C[C@@H]1C | 1.13 ± 0.13 | 
15 | N#C[C@H]1[C@H](c2ccc(-c3cccc(F)c3)cc2)[C@H](CO)N1c1nc(-c2ccccc2)cs1 | 1.039 ± 0.0041 | 
16 | Cc1noc(C)c1NC(=O)N(C)C[C@@H]1Oc2cc(C#CCN(C)C)ccc2S(=O)(=O)N([C@@H](C)CO)C[C@@H]1C | 0.972 ± 0.051 | 
17 | CCS(=O)(=O)Nc1ccc2c(c1)C(=O)N(C)C[C@@H](OC)[C@H](C)CN(C(=O)c1ccc3c(c1)OCO3)[C@H](C)CO2 | 1.11 ± 0.061 | 
18 | COc1ccccc1NC(=O)N1CC(=O)N2[C@@H](CO)[C@H](c3ccc(C#CC(C)C)cc3)[C@@H]2C1 | 1.08 ± 0.011 | 
19 | CNC[C@H]1OCc2ccccc2-c2ccccc2C(=O)N([C@H](C)CO)C[C@@H]1C | 0.99 ± 0.045 | 
20 | Cc1ccc(S(=O)(=O)Nc2ccc3c(c2)C(=O)N([C@@H](C)CO)C[C@H](C)[C@@H](CN(C)S(=O)(=O)c2cccs2)OCCCC[C@H](C)O3)cc1 | 0.8848 ± 0.0037 | 
21 | CN(C)C(=O)c1ccc(-c2ccccc2[C@H]2[C@@H](C#N)N(C(=O)C3CC3)[C@H]2CO)cc1 | 1.14 ± 0.024 | 
22 | C/C=C/c1ccc([C@@H]2[C@H](CO)N(C(=O)C3CCCC3)C23CN(S(C)(=O)=O)C3)cc1 | 1.03 ± 0.053 | 

Row | Structure (SMILES) | viability index [1] | viability index (library set: Broad Institute Blood Stage)
23 | COc1ccc2c3c([C@H](CO)NC[C@]33CN(C3)C(=O)Nc3ccccc3F)n(C)c2c1 | 0.949 ± 0.019 | 
24 | CO[C@@H]1CN(C)C(=O)c2ccc(NC(=O)Nc3ccccc3Cl)cc2OC[C@@H](C)N(C)C[C@H]1C |  | 0.889 ± 0.09
25 | C[C@@H]1CN([C@@H](C)CO)C(=O)c2cc(-c3cccc(C(=O)N(C)C)c3)cnc2O[C@H]1CN(C)C(=O)Cc1ccccn1 | 0.973 ± 0.097 | 
26 | O=C(O)[C@H]1[C@H](CO)[C@H]2Cn3c(ccc(-c4ccccc4F)c3=O)[C@H]2N1Cc1ccccc1 | 1.09 ± 0.037 | 
27 | O=C(C[C@H]1C[C@H]2c3cc(NC(=O)CC4CC4)ccc3O[C@H]2[C@H](CO)O1)NCC1CC1 | 0.9945 ± 0.0055 | 
28 | O=C(Nc1ccc(Cl)cc1)N1C[C@H]2[C@@H](c3ccccc31)[C@@H](CO)N2CC1CCCCC1 | 0.977 ± 0.14 | 
29 | OC[C@H]1[C@@H](c2ccc(-c3cccc(F)c3)cc2)[C@@H]2CN(Cc3cncnc3)CCCCN12 | 0.963 ± 0.1 | 
30 | C[C@@H]1CN([C@H](C)CO)C(=O)c2cc(NS(=O)(=O)c3cn(C)cn3)ccc2O[C@@H]1CN(C)C(=O)Nc1cccc2ccccc12 | 0.95 ± 0.13 | 
31 | O=C(c1ccccc1F)N1CC2(C1)[C@H](c1ccccc1)[C@@H](CO)N2CC1CCOCC1 | 1.1 ± 0.09 | 
32 | Cc1cccc(-c2ccc([C@@H]3[C@@H](CO)N4C(=O)CN(C(=O)c5ccc6c(c5)OCO6)C[C@H]34)cc2)c1 | 0.917 ± 0.033 | 
33 | O=C(C[C@@H]1CC[C@@H]2[C@H](COC[C@@H](O)CN2Cc2nccs2)O1)NCc1ccccc1Cl | 1.035 ± 0.0082 | 
34 | COc1cccc(C#Cc2ccc3c(c2)O[C@@H](CN(C)C(=O)CN2CCOCC2)[C@H](C)CN([C@H](C)CO)S3(=O)=O)c1 | 1.02 ± 0.063 | 
35 | CN(C)CC(=O)N[C@@H]1CC[C@H](CCNC(=O)C2CCC2)O[C@@H]1CO | 1.1 ± 0.04 | 
36 | CNC[C@H]1Oc2ccc(NC(=O)CCC(F)(F)F)cc2C(=O)N([C@@H](C)CO)C[C@H]1C | 1.016 ± 0.0091 | 
37 | C[C@@H]1CN([C@H](C)CO)C(=O)c2cc(NC(=O)Nc3ccc(C(F)(F)F)cc3)ccc2O[C@@H](C)CCCCO[C@@H]1CN(C)S(=O)(=O)c1ccc(Cl)cc1 | 1.05 ± 0.12 | 
38 | O=C(C[C@H]1CC[C@@H]2[C@H](COC[C@@H](O)CN2Cc2ccc(C(F)(F)F)cc2)O1)N1CCc2ccccc2C1 | 1.07 ± 0.085 | 
39 | COc1ccc(CN(C)C[C@H]2OCCCC[C@@H](C)Oc3ccc(NC(=O)C4CCCCC4)cc3C(=O)N([C@H](C)CO)C[C@H]2C)cc1 | 1.04 ± 0.021 | 
40 | CCS(=O)(=O)N1CC2(C1)[C@H](c1ccccc1)[C@@H](CO)N2C(=O)c1ccccc1 | 1.13 ± 0.033 | 
41 | C[C@@H]1CN([C@@H](C)CO)C(=O)CCCn2cc(nn2)CO[C@@H]1CN(C)C(=O)c1ccc(N2CCN(C)CC2)cc1 | 1.01 ± 0.096 | 
42 | O=C(C[C@H]1CC[C@H](NC(=O)c2cccnc2)[C@H](CO)O1)NCc1ccc(Cl)c(Cl)c1 | 0.928 ± 0.12 | 
43 | CO[C@@H]1CN(C)C(=O)c2cc(NS(C)(=O)=O)ccc2OC[C@@H](C)N(C(=O)C2CCOCC2)C[C@H]1C | 1.16 ± 0.051 | 
44 | COc1ccc2c3c([nH]c2c1)[C@H](CO)N(C[C@]31CN(Cc2ccccc2)C1)S(=O)(=O)c1ccc(C)cc1 | 0.934 ± 0.13 | 
